From PubChem BioAssay AID1259400 (National Center for Advancing Translational Sciences (NCATS), 2018)
The whole screen tested about 350,000 compounds, of which about 2,100 (0.6%) were called active. Inconclusive means that the source gave no clear call. Such entries were picked first, then a sample of the others.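 How the source made its calls: active means activity change of -60% or lower, but not beyond a set lower limit; inconclusive means change between -60% and -40%, or beyond the set limit; inactive means change above -40%.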

molecular target: Relaxin receptor 1 (Homo sapiens) (UniProt Q9HBX9); test: qHTS Assay for Antagonists of the Relaxin Receptor RXFP1; conditions: HEK293-RXFP1, relaxin-stimulated cAMP HTRF, 30 min; at 57.5 µM; hits give low values
On the % scale 0 is the no-effect control and ±100 the full control effect.

Sequence of UniProt Q9HBX9 (Q9HBX9 whole entry, looked up): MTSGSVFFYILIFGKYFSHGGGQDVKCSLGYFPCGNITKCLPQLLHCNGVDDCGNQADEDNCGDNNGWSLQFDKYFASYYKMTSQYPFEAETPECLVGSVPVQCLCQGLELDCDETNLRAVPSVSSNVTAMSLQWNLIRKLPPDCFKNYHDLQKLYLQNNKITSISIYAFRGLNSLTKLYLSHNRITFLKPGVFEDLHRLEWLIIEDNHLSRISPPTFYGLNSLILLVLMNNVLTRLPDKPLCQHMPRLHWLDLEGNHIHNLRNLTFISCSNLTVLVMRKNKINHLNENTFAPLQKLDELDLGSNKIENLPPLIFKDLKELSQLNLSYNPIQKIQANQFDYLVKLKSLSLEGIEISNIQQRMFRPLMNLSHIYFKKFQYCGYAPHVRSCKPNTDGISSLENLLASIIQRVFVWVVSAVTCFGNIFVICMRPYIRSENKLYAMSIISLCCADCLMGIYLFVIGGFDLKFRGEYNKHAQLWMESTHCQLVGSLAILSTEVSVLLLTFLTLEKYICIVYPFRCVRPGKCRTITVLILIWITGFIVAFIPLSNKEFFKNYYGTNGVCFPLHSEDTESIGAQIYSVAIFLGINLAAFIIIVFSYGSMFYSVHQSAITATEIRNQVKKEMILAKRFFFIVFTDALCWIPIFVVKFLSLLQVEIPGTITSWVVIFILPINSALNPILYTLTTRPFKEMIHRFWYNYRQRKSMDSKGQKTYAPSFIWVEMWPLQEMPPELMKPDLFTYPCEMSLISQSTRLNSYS

Row | Structure (SMILES) | activity change, negative = inhibition
1 | O=C(Nc1ccc2nc(SCC(=O)N3CCOCC3)sc2c1)c1ccc(Cl)cc1 | inconclusive: -59.3%
2 | CCCOC(=O)c1cc(-c2ccc(C=O)o2)ccc1Cl | inactive: -12.9%
3 | S=c1[nH]nc(Cn2nnc3ccccc32)n1-c1ccc(Cl)cc1 | inactive: 1.61%
4 | COc1cc2ccccc2cc1C(=O)N(CCN(C)C)c1nc2c(F)cccc2s1 | inconclusive: -46.9%
5 | CN(C)CCCN1c2ccccc2Sc2ccccc21 | inconclusive: -47.6%
6 | CC(C)c1ccc(NC(=O)C2CCCN(S(=O)(=O)c3ccc4[nH]c(=O)ccc4c3)C2)cc1 (stereo unspecified) | inactive: 7.16%
7 | O=C(Nc1ccc(Nc2ccccc2)cc1)c1c(F)c(F)c(F)c(F)c1F | inconclusive: -43.1%
8 | COC(=O)c1c(NC(=S)Nc2ccccc2Cl)sc(C)c1C | active: -107%
9 | COc1ccc(C(=O)NCC(=O)N=Nc2c(O)n(Cc3ccccc3)c3ccccc23)cc1OC | inconclusive: -48.8%
10 | Cc1cccc(N2CCN(c3ncnc4onc(C)c34)CC2C)c1 (stereo unspecified) | inconclusive: -42.5%
11 | Cc1sc2nc(-c3ccccn3)[nH]c(=O)c2c1-c1ccccc1 | inconclusive: -52.8%
12 | COC(=O)c1ccc(CN2CCN(CC=C(C)C)C(CCO)C2)cc1 (stereo unspecified) | inconclusive: -48.4%
13 | CCCc1nc(SCC(=O)N2CCOCC2)c2c(C)c(C)sc2n1 | inconclusive: -43%
14 | O=C(Cc1ccccc1F)N1CCC(c2nc3c(nnn3Cc3cccc(Cl)c3)c(=O)[nH]2)CC1 | inconclusive: -52.9%
15 | O=C(Cc1cccc2ccccc12)NC(NC(=S)Nc1ccccc1Cl)C(Cl)(Cl)Cl (stereo unspecified) | active: -62.8%
16 | O=C(NCCCCc1ccccc1)c1nn(-c2ccccc2)nc1CO | active: -69.2%
17 | c1ccc(Nc2nc(NCC3CCCO3)c3ccccc3n2)cc1 (stereo unspecified) | inconclusive: -59.1%
18 | CCc1ccc(NC(=O)CN(c2ccc(OC)cc2)S(=O)(=O)c2c(C)nn(C)c2C)cc1 | active: -113%
19 | COc1cccc(Cl)c1NC(=O)N1CCc2c([nH]c3ccccc23)C1C(F)(F)F (stereo unspecified) | active: -74.7%

Row | Structure (SMILES) | activity change, negative = inhibition
20 | COc1ccc(Cc2nnc(SCC(=O)Nc3ccc(C)c(Cl)c3)[nH]c2=O)cc1 | inconclusive: -51.5%
21 | COc1ccccc1NC(=O)c1c(NCc2ccc(C)o2)sc2c1CCC(C)C2 (stereo unspecified) | inconclusive: -44.1%
22 | O=c1c2ccccc2nc2n1CCC2 | inactive: 2.28%
23 | O=C(NCc1ccncc1)C(=O)Nc1nc(C23CC4CC(CC(C4)C2)C3)cs1 | inconclusive: -40.7%
24 | N#C/C(=C\c1ccccn1)c1nc2ccccc2s1 | inconclusive: -49.1%
25 | N#CC(C#N)=C1C=CC=CN1/C(=C\c1ccco1)C(=O)c1ccccc1 | active: -104%
26 | Cc1cccc(-c2ncc(CN3CCN(C4CCCC4)C(CCO)C3)cn2)c1 (stereo unspecified) | inconclusive: -59%
27 | CN1CCN(c2oc(-c3ccc(COc4ccc(Cl)cc4)o3)nc2C#N)CC1 | inactive: -10.5%
28 | O=C(CCCCCNc1nc(=S)[nH]c2ccccc12)NCCC1=CCCCC1 | active: -62.9%
29 | O=C(O)c1cc(C2CC2)nn1-c1ccccc1 | inactive: 5.11%
30 | COc1ccc(NC(=O)CN(C)C(=O)c2cc(S(=O)(=O)N3CCCCCC3)ccc2OC)cc1 | active: -72.1%
31 | COc1cc(SC#N)ccc1N=Cc1c(C)[nH]n(-c2cccc3ccccc23)c1=O | inconclusive: -54.8%
32 | O=C(NCCc1ccc(Cl)cc1)c1ccc(Cn2c(=O)c3cccn3c3cccnc32)cc1 | inactive: 1.06%
33 | O=C(Nc1cccc(F)c1)C1CCN(S(=O)(=O)c2cnc[nH]2)CC1 | inconclusive: -43.4%
34 | O=C/C=C/c1c(-c2ccccc2)cc2oc3ccccc3cc1-2 | active: -90.5%
35 | COc1ccc(/C=N/NC(=O)c2cccnc2)cc1COc1ccc([N+](=O)[O-])c(C)c1 | inconclusive: -54.8%
36 | Cc1ccc(NC(=O)COc2ccc(/C=N/NC(=O)CSCc3ccccc3)cc2)cc1 | inactive: -15.1%
37 | COc1ccccc1NC(=O)c1cccc(N2C(=O)C3C4C=CC(C4)C3C2=O)c1 (stereo unspecified) | active: -77%
38 | O=C(c1cnc(N2CCCCC2)c2ccccc12)N1CCN(c2ccccc2F)CC1 | inconclusive: -56.8%

Row | Structure (SMILES) | activity change, negative = inhibition
39 | CC(NC(=O)Cn1ncc(Cl)c(Cl)c1=O)C12CC3CC(CC(C3)C1)C2 (stereo unspecified) | active: -100%
40 | COc1ccc(/C=C/c2ccc(=O)n(Cc3ccccc3)n2)cc1 | inconclusive: -53.2%
41 | CC(Sc1nnc2c(n1)[nH]c1ccccc12)C(=O)N(C)C1CCCCC1 (stereo unspecified) | inconclusive: -41.1%
42 | CCC(=O)NCCC(c1ccco1)c1ccccc1OC (stereo unspecified) | inactive: -6.49%
43 | Cc1ccc(NC(=O)c2ccccc2Br)cc1S(=O)(=O)N(C)C | inconclusive: -57.5%
44 | N/C(=N\OC(=O)c1cccc(Br)c1)c1ccncc1 | inconclusive: -48.2%
45 | Cc1ccc(C(=O)N/N=C/C2=Cc3ccccc3OC2C)cc1 (stereo unspecified) | inconclusive: -40.2%
46 | CC(C)Cn1c(=O)oc2ccccc21 | inconclusive: -46.1%
47 | O=C(N/N=C/c1cc(Br)c(Br)o1)c1cc2ccccc2o1 | active: -63.3%
48 | Cn1c(=O)c2c(-c3ccccc3Cl)n(-c3cc(Cl)ccc3O)cc2n(C)c1=O | inconclusive: -43.1%
49 | CCCCCC(O)(c1ccccc1)C(CN1CCOCC1)c1ccccc1 (stereo unspecified) | active: -64.3%
50 | COc1cccc(Cn2c(=S)[nH]c3ccc(N4CCOCC4)cc3c2=O)c1 | inconclusive: -54.4%
51 | Cc1cc(C)cc(OC(C)C(=O)Nc2nonc2-c2ccc(Br)cc2)c1 (stereo unspecified) | inactive: -26.1%
52 | CCc1ccc(CN(Cc2ccco2)C(=O)c2ccc(OC)cc2)cc1 | active: -63.3%
53 | CC(C)N(Cc1ccccc1)C(=O)COC(=O)c1cc(S(=O)(=O)N(C)C)ccc1N1CCCC1 | active: -74.8%
54 | CCOC(=O)c1c(NC(=O)c2ccc(S(=O)(=O)N3CCC(C)CC3)cc2)sc2c1CCN(C)C2 | active: -62.7%
55 | CCCN(CCC)C(=O)CC(c1ccccc1)c1ccc(C)cc1O (stereo unspecified) | inconclusive: -40.7%
56 | CCC1CN(C(=O)N2CCC(C(=O)NCCc3ccc(Cl)cc3)CC2)c2ccccc2O1 (stereo unspecified) | inactive: -36%
